Data published in patent US7592316B2, “Peptides as NS3-serine protease inhibitors of hepatitis C virus” (Schering Corporation, priority 2000, dated 2009).
*1 amine or outer side, *2 acyl side, *3 side chain or, on linkers, in order; H or OH if unused. Where a SMILES comes first, the peptide text is derived from it. [ ]: non-standard residue; d: D form. The star is where a group is joined. ξ: configuration not given here. ξ(3-Amino-2-oxohex-5-enoyl) = C=CCC(N[*:1])C(=O)C(=O)[*:2]; Pro(3R,4S-CMe2) = CC1(C)[C@@H]2[C@@H](C(=O)O)NC[C@@H]21; ξ(3-Amino-2-oxopentanoyl) = CCC(N[*:1])C(=O)C(=O)[*:2]; Pro(3S,4R-CMe2) = CC1(C)[C@H]2[C@@H](C(=O)O)NC[C@H]21; Pro(3S,4R-(CH2)3) = O=C(O)[C@H]1NC[C@@H]2CCC[C@@H]21; Pro(4,4-S(CH2)3S) = O=C(O)[C@@H]1CC2(CN1)SCCCS2; X96 = CCC(F)(F)CC(N[*:1])C(=O)C(=O)[*:2]; Gly(2-thienyl) = N[C@H](C(=O)O)c1cccs1; Pro(4,4-Me2) = CC1(C)CN[C@H](C(=O)O)C1; Pro(5S-Me) = C[C@H]1CC[C@@H](C(=O)O)N1; X70 = O=C(c1ccc(C(F)(F)F)cc1C(F)(F)F)*; X12 = CCC[C@H](N[*:1])C(=O)C(=O)[*:2]; Benzoyl(2,6-F2) = O=C(c1c(F)cccc1F)*; Cyclopentanecarbonyl = O=C(C1CCCC1)*; Isobutyloxycarbonyl = CC(C)COC(=O)*; X8 = O=C(C(=O)[*:2])C(CC1CC1)N[*:1]; 1Naphthoyl = O=C(c1cccc2ccccc12)*; X4 = CCCCC(N[*:1])C(=O)C(=O)[*:2]; X71 = COCC(N[*:1])C(=O)C(=O)[*:2]; Hyp = O=C(O)[C@@H]1C[C@@H](O)CN1; X2 = CCCC(N[*:1])C(=O)C(=O)[*:2]; Aad = N[C@@H](CCCC(=O)O)C(=O)O; dPhg = N[C@@H](C(=O)O)c1ccccc1; Chg = N[C@H](C(=O)O)C1CCCCC1; Phg = N[C@H](C(=O)O)c1ccccc1; Tle = CC(C)(C)[C@H](N)C(=O)O; X17 = O=C(O)Cc1ccccc1CC(=O)*; ξCha = NC(CC1CCCCC1)C(=O)O; ξChg = NC(C(=O)O)C1CCCCC1; ξPhg = NC(C(=O)O)c1ccccc1; Carboxymethyl = O=C(O)C*; Boc = CC(C)(C)OC(=O)*; ξNle = CCCCC(N)C(=O)O; ξV = CC(C)C(N)C(=O)O; X7 = O=C(OCC1CC1)*; Bn = c1ccc(C*)cc1; OtBu = CC(C)(C)O*; tBu = CC(C)(C)*

target: HCV NS3/NS4A protease (strain 1a) (Hepatitis C virus genotype 1a, UniProt P27958); assay: biochemical; settings: Compounds prepared by Solid Phase Synthesis, Table 3; read-out: Ki* CLASS

| Compound | Ki [nM] |
| --- | --- |
| CCCC(NC(=O)[C@@H]1C[C@@H](OCc2ccccc2)CN1C(=O)[C@H](CCCC(=O)OC(C)(C)C)NC(=O)c1c(F)cccc1F)C(=O)C(=O)NCC(=O)N[C@H](C(N)=O)c1ccccc1 (stereo partly drawn) ({Benzoyl(2,6-F2)}-[Aad](OtBu)[Hyp](Bn)[X2]G[Phg]-NH2) | > 1000 |
| CCCC(NC(=O)[C@@H]1C[C@@H](OCc2ccccc2)CN1C(=O)C(NC(=O)c1ccc(C(F)(F)F)cc1C(F)(F)F)C1CCCCC1)C(=O)C(=O)NCC(=O)N[C@@H](C(N)=O)c1ccccc1 (stereo partly drawn) (X70-[ξChg][Hyp](Bn)[X2]G[dPhg]-NH2) | > 1000 |
| CCCC(NC(=O)[C@@H]1C[C@@H](OCc2ccccc2)CN1C(=O)C(NC(=O)C1CCCC1)C1CCCCC1)C(=O)C(=O)NCC(=O)NC(C(=O)O)c1ccccc1 (stereo partly drawn) (Cyclopentanecarbonyl-[ξChg][Hyp](Bn)[X2]G[ξPhg]-OH) | 1 to 100 |
| CCCCC(NC(=O)C(CCCC)NC(=O)CNC(=O)C(=O)C(CCC)NC(=O)[C@@H]1C[C@@H](OCc2ccccc2)CN1C(=O)C(NC(=O)c1cccc2ccccc12)C1CCCCC1)C(N)=O (stereo partly drawn) (1Naphthoyl-[ξChg][Hyp](Bn)[X2]G[ξNle][ξNle]-NH2) | 101 to 1000 |
| CCC(NC(=O)[C@@H]1C[C@@H](OC(C)(C)C)CN1C(=O)[C@@H](NC(=O)Cc1ccccc1CC(=O)O)C1CCCCC1)C(=O)C(=O)NCC(=O)N[C@H](C(N)=O)c1ccccc1 (stereo partly drawn) (X17-[Chg][Hyp](tBu)[ξ(3-Amino-2-oxopentanoyl)]G[Phg]-NH2) | 101 to 1000 |
| CCCC(NC(=O)[C@@H]1C[C@@H](OCC(=O)O)CN1C(=O)C(NC(=O)OCC(C)C)C(C)C)C(=O)C(=O)NCC(=O)NC(CC1CCCCC1)C(N)=O (stereo partly drawn) (Isobutyloxycarbonyl-[ξV][Hyp](Carboxymethyl)[X2]G[ξCha]-NH2) | > 1000 |

same assay, conditions: HCV protease continuous assay results, Table 1; read-out: Ki* Range

| Compound | Ki [nM] |
| --- | --- |
| CCCC(NC(=O)[C@@H]1CC2(CN1C(=O)[C@@H](NC(=O)OCC(C)C)C(C)(C)C)SCCCS2)C(=O)C(=O)NCC(=O)NC(C(N)=O)c1ccccc1 (stereo partly drawn) [Example 132] (Isobutyloxycarbonyl-[Tle][Pro(4,4-S(CH2)3S)][X2]G[ξPhg]-NH2) | 1 to 100 |
| CCCC(NC(=O)[C@@H]1CC2(CN1C(=O)[C@@H](NC(=O)OCC1CC1)C(C)(C)C)SCCCS2)C(=O)C(=O)NCC(=O)NC(C(=O)N(C)C)c1ccccc1 (stereo partly drawn) [Example 199] (X7-[Tle][Pro(4,4-S(CH2)3S)][X2]G[ξPhg]-NMe2) | 1 to 100 |
| C=CCC(NC(=O)[C@@H]1C[C@@H](OC(C)(C)C)CN1C(=O)[C@@H](NC(=O)OCC(C)C)C(C)(C)C)C(=O)C(=O)NCC(=O)N[C@H](C(=O)N(C)C)c1ccccc1 (stereo partly drawn) [Example 218] (Isobutyloxycarbonyl-[Tle][Hyp](tBu)[ξ(3-Amino-2-oxohex-5-enoyl)]G[Phg]-NMe2) | 1 to 100 |

same assay, conditions: Table 4; HCV NS3/NS4A protease, spectrophotometric assay, 30° C., pH 6.5; read-out: Ki* Range

| Compound | Ki [nM] |
| --- | --- |
| CCC[C@H](NC(=O)[C@@H]1CC(C)(C)CN1C(=O)[C@@H](NC(=O)OCC(C)C)C(C)(C)C)C(=O)C(=O)NCC(=O)NC(C(=O)N(C)C)c1ccccc1 (stereo partly drawn) (Isobutyloxycarbonyl-[Tle][Pro(4,4-Me2)][X12]G[ξPhg]-NMe2) | 1 to 100 |
| CCC[C@H](NC(=O)[C@@H]1CC[C@H](C)N1C(=O)[C@@H](NC(=O)OCC(C)C)C(C)(C)C)C(=O)C(=O)NCC(=O)N[C@H](C(=O)N(C)C)c1ccccc1 (Isobutyloxycarbonyl-[Tle][Pro(5S-Me)][X12]G[Phg]-NMe2) | 1 to 100 |

same assay, conditions: Table 5; HCV NS3/NS4A protease, 30° C., pH 6.5; read-out: Ki* Range

| Ki [nM] | Compound |
| --- | --- |
| 1 to 100 | C=CCNC(=O)C(=O)C(CCC)NC(=O)[C@@H]1C2C(CN1C(=O)[C@@H](NC(=O)O[C@@H]1CCC[C@@H]1C)C1Cc3ccccc3C1)C2(C)C (stereo partly drawn) |

same assay, conditions: Table 5; HCV NS3/NS4A protease, spectrophotometric assay, 30° C., pH 6.5; read-out: Ki* Range

| Ki [nM] | Compound |
| --- | --- |
| > 1000 | C=CCNC(=O)C(=O)C(CCC)NC(=O)[C@@H]1[C@H]2[C@@H](CN1C(=O)[C@@H](NC(=O)CC(C)CC)C1CCCC1)C2(C)C (stereo partly drawn) |
| 101 to 1000 | C=CCCC(NC(=O)[C@@H]1[C@@H]2[C@H](CN1C(=O)[C@@H](NC(=O)OC(C)(C)C)C1CCCCC1)C2(C)C)C(=O)C(=O)NCC(=O)OC(C)(C)C (stereo partly drawn) |
| > 1000 | C=CCNC(=O)C(=O)C(CC=C)NC(=O)[C@@H]1C2C(CN1C(=O)[C@@H](NC(=O)OC(C)(C)C)C1CCCC1)C2(C)C (stereo partly drawn) |
| 101 to 1000 | CNC(=O)C(=O)C(CC1CC1)NC(=O)[C@@H]1[C@@H]2[C@H](CN1C(=O)[C@@H](NC(=O)OC(C)(C)C)C1CCCCC1)C2(C)C (stereo partly drawn) |
| > 1000 | C=CCCNC(=O)C(=O)C(CCC)NC(=O)[C@@H]1[C@@H]2[C@H](CN1C(=O)[C@@H](NC(=O)OC(C)(C)C)C(C)(C)C)C2(C)C (stereo partly drawn) |
| 101 to 1000 | CCCC(NC(=O)[C@@H]1[C@@H]2[C@H](CN1C(=O)[C@@H](NC(=O)OC(C)(C)C)C1CCCC1)C2(C)C)C(=O)C(N)=O (stereo partly drawn) |
| 101 to 1000 | C=CCCC(NC(=O)[C@@H]1[C@@H]2[C@H](CN1C(=O)[C@@H](NC(=O)OC(C)(C)C)C1CCCCC1)C2(C)C)C(=O)C(=O)NCCC(=O)OC(C)(C)C (stereo partly drawn) |

Second part, the compound before the results:

| Compound | Ki [nM] |
| --- | --- |
| C=CCNC(=O)C(=O)C(CCCC)NC(=O)[C@@H]1[C@H]2OC(C)(C)O[C@H]2CN1C(=O)[C@@H](NC(=O)OC(C)(C)C)C(C)(C)C (stereo partly drawn) | > 1000 |
| NC(=O)C(=O)C(CC1CC1)NC(=O)[C@@H]1[C@H]2[C@@H](CN1C(=O)[C@@H](NC(=O)NC13CC4CC(CC(C4)C1)C3)C1CCCCC1)C2(Cl)Cl (stereo partly drawn) | 1 to 100 |
| C=CCCC(NC(=O)C1[C@@H]2[C@H](CN1C(=O)[C@@H](NC(=O)OC(C)(C)C)C(C)(C)C)C2(C)C)C(=O)C(=O)NCC(=O)CCc1ccccc1 (stereo partly drawn) | 101 to 1000 |
| CCCCC(NC(=O)[C@@H]1[C@H]2[C@@H](CN1C(=O)[C@@H](NC(=O)OC(C)(C)C)C(C)(C)C)C2(C)C)C(=O)C(=O)NCC(=O)N[C@H](C(=O)N(C)C)c1cccs1 (stereo partly drawn) [drawing 1524] (Boc-[Tle][Pro(3S,4R-CMe2)][X4]G[Gly(2-thienyl)]-NMe2) | 1 to 100 |
| COCC(NC(=O)[C@@H]1[C@@H]2[C@H](CN1C(=O)[C@@H](NC(=O)OC(C)(C)C)C1CCCCC1)C2(C)C)C(=O)C(=O)NCC(=O)N[C@H](C(=O)N(C)C)c1ccccc1 (stereo partly drawn) (Boc-[Chg][Pro(3R,4S-CMe2)][X71]G[Phg]-NMe2) | 101 to 1000 |

same assay, conditions: Table 6; HCV NS3/NS4A protease, 30° C., pH 6.5; read-out: Ki*

| Ki [nM] | Compound |
| --- | --- |
| 101 to 1000 | CC(C)(C)OC(=O)N[C@H](C(=O)N1C[C@H]2[C@@H]([C@H]1C(=O)NC(CC1CCC1)C(=O)C(N)=O)C21CC1)C(C)(C)C (stereo partly drawn) |
| 1 to 100 | CC1(C)[C@@H]2[C@@H](C(=O)NC(CC3CC3)C(=O)C(N)=O)N(C(=O)[C@@H](NC(=O)OC(C)(C)C(F)(F)F)C3Cc4ccccc4C3)C[C@@H]21 (stereo partly drawn) |
| 101 to 1000 | CCC(F)(F)CC(NC(=O)[C@@H]1[C@@H]2[C@H](CN1C(=O)[C@@H](NC(=O)OC(C)(C)C)C1CCCCC1)C2(C)C)C(=O)C(=O)O (stereo partly drawn) |
| 101 to 1000 | COC(=O)C(C)(C)OC(=O)N[C@H](C(=O)N1C[C@H]2[C@@H]([C@H]1C(=O)NC(CC1CCC1)C(=O)C(N)=O)C2(Cl)Cl)C(C)(C)C (stereo partly drawn) |
| > 1000 | C=CCCC(NC(=O)[C@@H]1[C@@H]2[C@H](CN1C(=O)C(NC(=O)OC(C)(C)C)C1CCCCC1)C2(C)C)C(=O)C(=O)NCCN(CC)CC (stereo partly drawn) |
| 101 to 1000 | CC1C[C@H]2CN(C(=O)[C@@H](NC(=O)OC(C)(C)C)C(C)(C)C)[C@H](C(=O)NC(CC3CCC3)C(=O)C(N)=O)[C@H]2CC1C (stereo partly drawn) |

More lines, now with the values behind:

| Compound | Ki [nM] |
| --- | --- |
| CCC(F)(F)CC(NC(=O)[C@@H]1[C@@H]2[C@H](CN1C(=O)[C@@H](NC(=O)OC(C)(C)C)C1CCCCC1)C2(C)C)C(=O)C(=O)NCC(=O)N[C@H](C(=O)N(C)C)c1ccccc1 (stereo partly drawn) (Boc-[Chg][Pro(3R,4S-CMe2)][X96]G[Phg]-NMe2) | 1 to 100 |
| C=CCCC(NC(=O)[C@@H]1[C@@H]2[C@H](CN1C(=O)[C@@H](NC(=O)NC(C)(C)C)C(C)(C)C)C2(C)C)C(=O)C(=O)NCCS(=O)(=O)C(C)(C)C (stereo partly drawn) | 101 to 1000 |
| CN(C)C(=O)[C@@H](NC(=O)CNC(=O)C(=O)C(CC1CC1)NC(=O)[C@@H]1[C@H]2CCC[C@H]2CN1C(=O)[C@@H](NC(=O)OC(C)(C)C)C1CCCCC1)c1ccccc1 (stereo partly drawn) (Boc-[Chg][Pro(3S,4R-(CH2)3)][X8]G[Phg]-NMe2) | 1 to 100 |
